In article PMC4534575, “The RNA Helicase DHX34 Activates NMD by Promoting a Transition from the Surveillance to the Decay-Inducing Complex” (Cell Reports, 2014):
No constants are given. Whether binding was seen depends on the method and setting. Binding seen in cells or lysates may run through a third protein. Some binding calls cover weakened binding; strength is not graded here. Where a sequence is shown, tags or fusion partners need not be part of it.

By UniProt entry, the sequences of proteins in these tests, tags left out.
UniProt P11940: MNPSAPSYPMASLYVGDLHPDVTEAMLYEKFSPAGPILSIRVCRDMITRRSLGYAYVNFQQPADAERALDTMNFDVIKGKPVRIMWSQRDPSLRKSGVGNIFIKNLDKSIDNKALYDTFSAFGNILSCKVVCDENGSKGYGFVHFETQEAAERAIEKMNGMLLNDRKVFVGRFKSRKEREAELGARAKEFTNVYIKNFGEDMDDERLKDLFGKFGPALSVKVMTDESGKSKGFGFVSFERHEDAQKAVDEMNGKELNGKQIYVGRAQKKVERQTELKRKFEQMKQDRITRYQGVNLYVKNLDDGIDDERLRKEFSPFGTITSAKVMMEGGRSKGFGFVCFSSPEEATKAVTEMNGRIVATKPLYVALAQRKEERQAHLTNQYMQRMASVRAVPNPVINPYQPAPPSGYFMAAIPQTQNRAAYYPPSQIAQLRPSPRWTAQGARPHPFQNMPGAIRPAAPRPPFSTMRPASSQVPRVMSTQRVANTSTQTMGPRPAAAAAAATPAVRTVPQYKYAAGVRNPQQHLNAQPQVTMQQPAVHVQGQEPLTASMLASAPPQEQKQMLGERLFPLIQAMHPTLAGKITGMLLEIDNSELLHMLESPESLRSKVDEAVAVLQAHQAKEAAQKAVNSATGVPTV
UniProt Q86US8: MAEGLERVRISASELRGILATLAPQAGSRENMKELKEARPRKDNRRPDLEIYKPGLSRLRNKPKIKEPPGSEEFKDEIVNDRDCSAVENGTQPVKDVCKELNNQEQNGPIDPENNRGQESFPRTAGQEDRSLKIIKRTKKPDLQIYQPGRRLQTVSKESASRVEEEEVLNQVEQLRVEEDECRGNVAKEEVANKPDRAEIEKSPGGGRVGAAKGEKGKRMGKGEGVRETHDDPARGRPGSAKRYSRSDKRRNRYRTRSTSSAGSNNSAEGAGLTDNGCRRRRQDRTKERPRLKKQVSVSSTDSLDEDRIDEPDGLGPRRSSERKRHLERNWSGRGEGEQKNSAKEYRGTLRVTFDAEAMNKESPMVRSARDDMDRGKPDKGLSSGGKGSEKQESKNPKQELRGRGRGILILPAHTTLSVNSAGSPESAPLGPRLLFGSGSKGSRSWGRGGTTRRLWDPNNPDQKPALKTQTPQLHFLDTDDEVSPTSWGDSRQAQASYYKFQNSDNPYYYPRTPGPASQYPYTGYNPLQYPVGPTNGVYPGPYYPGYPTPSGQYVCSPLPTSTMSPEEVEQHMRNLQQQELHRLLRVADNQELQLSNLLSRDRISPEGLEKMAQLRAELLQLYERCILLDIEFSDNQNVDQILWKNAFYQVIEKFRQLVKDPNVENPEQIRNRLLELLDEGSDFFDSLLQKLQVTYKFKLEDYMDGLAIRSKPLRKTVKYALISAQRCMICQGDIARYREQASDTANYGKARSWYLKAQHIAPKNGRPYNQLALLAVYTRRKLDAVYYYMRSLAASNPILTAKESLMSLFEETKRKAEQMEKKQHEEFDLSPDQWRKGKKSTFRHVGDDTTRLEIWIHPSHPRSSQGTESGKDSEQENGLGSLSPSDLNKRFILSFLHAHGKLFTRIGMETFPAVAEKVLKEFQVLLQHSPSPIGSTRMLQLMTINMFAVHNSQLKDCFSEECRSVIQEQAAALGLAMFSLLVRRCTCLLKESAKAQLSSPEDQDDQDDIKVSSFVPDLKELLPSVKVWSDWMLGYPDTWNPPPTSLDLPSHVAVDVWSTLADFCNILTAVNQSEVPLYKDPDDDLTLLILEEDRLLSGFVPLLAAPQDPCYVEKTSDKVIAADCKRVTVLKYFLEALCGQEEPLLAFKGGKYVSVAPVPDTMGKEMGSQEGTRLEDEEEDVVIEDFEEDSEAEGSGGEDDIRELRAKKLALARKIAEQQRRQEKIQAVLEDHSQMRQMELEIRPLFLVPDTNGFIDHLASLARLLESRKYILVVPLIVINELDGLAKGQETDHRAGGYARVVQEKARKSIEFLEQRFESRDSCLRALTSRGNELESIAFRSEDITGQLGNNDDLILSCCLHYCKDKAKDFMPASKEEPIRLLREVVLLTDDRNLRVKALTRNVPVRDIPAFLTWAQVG
UniProt Q8IZH2: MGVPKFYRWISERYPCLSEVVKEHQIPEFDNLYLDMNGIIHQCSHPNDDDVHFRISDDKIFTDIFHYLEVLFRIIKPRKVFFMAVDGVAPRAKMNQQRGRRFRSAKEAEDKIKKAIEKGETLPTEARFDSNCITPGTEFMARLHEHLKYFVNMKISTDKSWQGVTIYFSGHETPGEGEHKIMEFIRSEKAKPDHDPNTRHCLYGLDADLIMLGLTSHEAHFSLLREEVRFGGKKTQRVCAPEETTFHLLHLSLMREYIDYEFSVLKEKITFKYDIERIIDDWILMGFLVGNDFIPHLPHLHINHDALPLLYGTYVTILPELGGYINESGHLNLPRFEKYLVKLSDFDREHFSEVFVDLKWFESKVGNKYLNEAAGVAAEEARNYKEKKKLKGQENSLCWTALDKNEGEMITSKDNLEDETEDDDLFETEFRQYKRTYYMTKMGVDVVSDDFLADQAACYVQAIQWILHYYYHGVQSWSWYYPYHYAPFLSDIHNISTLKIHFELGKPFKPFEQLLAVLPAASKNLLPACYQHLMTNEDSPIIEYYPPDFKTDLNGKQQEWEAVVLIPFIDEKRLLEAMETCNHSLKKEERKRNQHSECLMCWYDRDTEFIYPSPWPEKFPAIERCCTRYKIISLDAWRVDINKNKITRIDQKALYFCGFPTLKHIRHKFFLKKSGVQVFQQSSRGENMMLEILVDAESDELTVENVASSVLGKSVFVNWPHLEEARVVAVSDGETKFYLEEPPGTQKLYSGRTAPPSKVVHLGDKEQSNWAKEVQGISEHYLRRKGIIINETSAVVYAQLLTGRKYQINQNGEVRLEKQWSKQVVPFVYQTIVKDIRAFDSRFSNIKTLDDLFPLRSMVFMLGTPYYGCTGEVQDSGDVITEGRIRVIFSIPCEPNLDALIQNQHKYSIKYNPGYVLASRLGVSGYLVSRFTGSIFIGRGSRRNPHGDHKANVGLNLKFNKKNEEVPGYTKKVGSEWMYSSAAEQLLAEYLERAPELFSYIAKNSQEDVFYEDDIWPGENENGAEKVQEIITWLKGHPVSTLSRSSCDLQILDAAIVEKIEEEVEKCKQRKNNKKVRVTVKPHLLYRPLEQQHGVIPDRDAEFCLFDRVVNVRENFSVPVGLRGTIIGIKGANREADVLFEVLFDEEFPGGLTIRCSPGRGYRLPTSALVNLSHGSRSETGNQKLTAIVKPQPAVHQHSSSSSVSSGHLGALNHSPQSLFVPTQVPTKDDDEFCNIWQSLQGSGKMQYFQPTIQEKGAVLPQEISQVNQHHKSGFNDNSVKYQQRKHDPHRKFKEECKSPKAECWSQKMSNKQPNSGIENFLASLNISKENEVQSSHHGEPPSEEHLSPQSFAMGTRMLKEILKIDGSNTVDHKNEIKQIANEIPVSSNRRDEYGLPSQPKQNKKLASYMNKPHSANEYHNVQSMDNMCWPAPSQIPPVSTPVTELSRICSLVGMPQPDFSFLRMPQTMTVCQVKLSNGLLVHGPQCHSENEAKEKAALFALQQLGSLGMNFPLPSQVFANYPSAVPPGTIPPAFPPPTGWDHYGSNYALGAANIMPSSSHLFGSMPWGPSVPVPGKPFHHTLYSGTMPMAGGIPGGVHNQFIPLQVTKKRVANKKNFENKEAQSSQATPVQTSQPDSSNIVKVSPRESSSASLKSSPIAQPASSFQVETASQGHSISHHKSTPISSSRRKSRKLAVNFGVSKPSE

T1: FLAG-UPF1 (wild-type) (human) (UniProt Q92900)
T1 sequence: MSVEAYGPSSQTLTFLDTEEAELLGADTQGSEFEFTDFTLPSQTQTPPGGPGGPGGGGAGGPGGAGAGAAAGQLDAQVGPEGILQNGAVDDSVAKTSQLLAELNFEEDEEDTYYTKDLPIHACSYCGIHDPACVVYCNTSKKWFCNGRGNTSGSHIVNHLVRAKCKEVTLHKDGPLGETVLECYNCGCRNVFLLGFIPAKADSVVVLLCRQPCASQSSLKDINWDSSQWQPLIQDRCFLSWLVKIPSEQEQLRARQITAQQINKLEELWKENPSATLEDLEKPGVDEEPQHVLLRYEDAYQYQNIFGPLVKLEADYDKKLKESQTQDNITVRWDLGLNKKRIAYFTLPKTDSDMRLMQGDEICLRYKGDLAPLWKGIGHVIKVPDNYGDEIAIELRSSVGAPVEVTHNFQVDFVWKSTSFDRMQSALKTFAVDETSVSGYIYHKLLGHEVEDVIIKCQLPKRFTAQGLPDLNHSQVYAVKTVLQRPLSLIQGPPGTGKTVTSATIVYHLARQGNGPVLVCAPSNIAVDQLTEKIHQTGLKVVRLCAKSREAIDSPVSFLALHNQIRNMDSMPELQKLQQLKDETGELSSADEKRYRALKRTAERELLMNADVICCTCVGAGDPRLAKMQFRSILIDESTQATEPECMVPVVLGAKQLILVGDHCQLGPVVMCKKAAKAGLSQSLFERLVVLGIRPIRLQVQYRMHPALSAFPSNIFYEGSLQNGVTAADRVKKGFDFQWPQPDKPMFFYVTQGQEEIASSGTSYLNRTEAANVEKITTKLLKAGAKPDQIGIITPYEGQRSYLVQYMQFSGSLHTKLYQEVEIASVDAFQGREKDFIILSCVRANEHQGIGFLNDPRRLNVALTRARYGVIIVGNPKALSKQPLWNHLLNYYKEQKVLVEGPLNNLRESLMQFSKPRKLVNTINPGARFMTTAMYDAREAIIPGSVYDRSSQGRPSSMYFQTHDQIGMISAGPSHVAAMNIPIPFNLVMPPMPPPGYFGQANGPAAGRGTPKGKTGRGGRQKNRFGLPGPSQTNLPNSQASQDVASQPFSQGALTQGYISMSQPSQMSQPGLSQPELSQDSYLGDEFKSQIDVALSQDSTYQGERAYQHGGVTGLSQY

T2: FLAG-DHX34 (human) (UniProt Q14147)
T2 sequence: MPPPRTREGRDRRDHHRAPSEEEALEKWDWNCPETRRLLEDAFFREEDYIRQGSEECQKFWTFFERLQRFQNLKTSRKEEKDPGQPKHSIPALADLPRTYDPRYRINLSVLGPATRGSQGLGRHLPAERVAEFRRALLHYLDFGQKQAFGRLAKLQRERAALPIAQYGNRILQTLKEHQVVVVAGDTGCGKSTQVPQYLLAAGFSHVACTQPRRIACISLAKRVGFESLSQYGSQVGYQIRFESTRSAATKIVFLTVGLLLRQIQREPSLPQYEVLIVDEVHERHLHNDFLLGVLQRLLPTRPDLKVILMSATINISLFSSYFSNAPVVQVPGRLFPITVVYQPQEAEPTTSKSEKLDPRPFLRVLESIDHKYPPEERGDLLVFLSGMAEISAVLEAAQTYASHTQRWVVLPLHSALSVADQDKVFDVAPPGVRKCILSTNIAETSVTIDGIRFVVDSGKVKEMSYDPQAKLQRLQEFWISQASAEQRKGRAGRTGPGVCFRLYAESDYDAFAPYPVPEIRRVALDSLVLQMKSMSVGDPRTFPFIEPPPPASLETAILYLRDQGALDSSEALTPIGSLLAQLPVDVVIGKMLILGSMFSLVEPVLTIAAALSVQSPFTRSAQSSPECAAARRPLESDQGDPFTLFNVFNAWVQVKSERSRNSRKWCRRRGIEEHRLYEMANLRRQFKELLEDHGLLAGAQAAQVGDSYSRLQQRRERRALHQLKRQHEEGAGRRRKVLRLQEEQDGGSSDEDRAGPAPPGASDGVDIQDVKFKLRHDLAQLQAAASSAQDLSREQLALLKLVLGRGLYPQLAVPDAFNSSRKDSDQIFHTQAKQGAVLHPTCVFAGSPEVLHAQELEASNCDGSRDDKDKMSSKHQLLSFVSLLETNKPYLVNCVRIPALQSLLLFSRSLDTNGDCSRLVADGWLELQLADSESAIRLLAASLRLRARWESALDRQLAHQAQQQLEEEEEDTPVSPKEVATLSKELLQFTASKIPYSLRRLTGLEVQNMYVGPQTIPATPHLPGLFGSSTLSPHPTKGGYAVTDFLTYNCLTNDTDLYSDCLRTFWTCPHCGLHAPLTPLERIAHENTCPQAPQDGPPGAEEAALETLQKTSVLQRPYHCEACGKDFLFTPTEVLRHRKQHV

B1: endogenous DHX34 (protein, UniProt Q14147 1-1143)
chain: T2 sequence
B2: UPF3a (protein, UniProt Q9H1J1 1-476)
chain: MRSEKEGAGGLRAAVAARGPSGREKLSALEVQFHRDSQQQEAETPPTSSSGCGGGAGKPREEKRTALSKVVIRRLPPGLTKEQLEEQLRPLPAHDYFEFFAADLSLYPHLYSRAYINFRNPDDILLFRDRFDGYIFLDSKGLEYPAVVEFAPFQKIAKKKLRKKDAKTGSIEDDPEYKKFLETYCVEEEKTSANPETLLGEMEAKTRELIARRTTPLLEYIKNRKLEKQRIREEKREERRRRELEKKRLREEEKRRRREEERCKKKETDKQKKIAEKEVRIKLLKKPEKGEEPTTEKPKERGEEIDTGGGKQESCAPGAVVKARPMEGSLEEPQETSHSGSDKEHRDVERSQEQESEAQRYHVDDGRRHRAHHEPERLSRRSEDEQRWGKGPGQDRGKKGSQDSGAPGEAMERLGRAQRCDDSPAPRKERLANKDRPALQLYDPGARFRARECGGNRRICKAEGSGTGPEKREEAE
B3: exosome component DIS3 (protein, UniProt Q9Y2L1 1-958)
chain: MLKSKTFLKKTRAGGVMKIVREHYLRDDIGCGAPGCAACGGAHEGPALEPQPQDPASSVCPQPHYLLPDTNVLLHQIDVLEDPAIRNVIVLQTVLQEVRNRSAPVYKRIRDVTNNQEKHFYTFTNEHHRETYVEQEQGENANDRNDRAIRVAAKWYNEHLKKMSADNQLQVIFITNDRRNKEKAIEEGIPAFTCEEYVKSLTANPELIDRLACLSEEGNEIESGKIIFSEHLPLSKLQQGIKSGTYLQGTFRASRENYLEATVWIHGDNEENKEIILQGLKHLNRAVHEDIVAVELLPKSQWVAPSSVVLHDEGQNEEDVEKEEETERMLKTAVSEKMLKPTGRVVGIIKRNWRPYCGMLSKSDIKESRRHLFTPADKRIPRIRIETRQASTLEGRRIIVAIDGWPRNSRYPNGHFVRNLGDVGEKETETEVLLLEHDVPHQPFSQAVLSFLPKMPWSITEKDMKNREDLRHLCICSVDPPGCTDIDDALHCRELENGNLEVGVHIADVSHFIRPGNALDQESARRGTTVYLCEKRIDMVPELLSSNLCSLKCDVDRLAFSCIWEMNHNAEILKTKFTKSVINSKASLTYAEAQLRIDSANMNDDITTSLRGLNKLAKILKKRRIEKGALTLSSPEVRFHMDSETHDPIDLQTKELRETNSMVEEFMLLANISVAKKIHEEFSEHALLRKHPAPPPSNYEILVKAARSRNLEIKTDTAKSLAESLDQAESPTFPYLNTLLRILATRCMMQAVYFCSGMDNDFHHYGLASPIYTHFTSPIRRYADVIVHRLLAVAIGADCTYPELTDKHKLADICKNLNFRHKMAQYAQRASVAFHTQLFFKSKGIVSEEAYILFVRKNAIVVLIPKYGLEGTVFFEEKDKPNPQLIYDDEIPSLKIEDTVFHVFDKVKVKIMLDSSNLQHQKIRMSLVEPQIPGISIPTDTSNMDLNGPKKKKMKLGK
B4: RNA helicase MOV10 (protein, UniProt Q9HCE1 1-1003)
chain: MPSKFSCRQLREAGQCFESFLVVRGLDMETDRERLRTIYNRDFKISFGTPAPGFSSMLYGMKIANLAYVTKTRVRFFRLDRWADVRFPEKRRMKLGSDISKHHKSLLAKIFYDRAEYLHGKHGVDVEVQGPHEARDGQLLIRLDLNRKEVLTLRLRNGGTQSVTLTHLFPLCRTPQFAFYNEDQELPCPLGPGECYELHVHCKTSFVGYFPATVLWELLGPGESGSEGAGTFYIARFLAAVAHSPLAAQLKPMTPFKRTRITGNPVVTNRIEEGERPDRAKGYDLELSMALGTYYPPPRLRQLLPMLLQGTSIFTAPKEIAEIKAQLETALKWRNYEVKLRLLLHLEELQMEHDIRHYDLESVPMTWDPVDQNPRLLTLEVPGVTESRPSVLRGDHLFALLSSETHQEDPITYKGFVHKVELDRVKLSFSMSLLSRFVDGLTFKVNFTFNRQPLRVQHRALELTGRWLLWPMLFPVAPRDVPLLPSDVKLKLYDRSLESNPEQLQAMRHIVTGTTRPAPYIIFGPPGTGKTVTLVEAIKQVVKHLPKAHILACAPSNSGADLLCQRLRVHLPSSIYRLLAPSRDIRMVPEDIKPCCNWDAKKGEYVFPAKKKLQEYRVLITTLITAGRLVSAQFPIDHFTHIFIDEAGHCMEPESLVAIAGLMEVKETGDPGGQLVLAGDPRQLGPVLRSPLTQKHGLGYSLLERLLTYNSLYKKGPDGYDPQFITKLLRNYRSHPTILDIPNQLYYEGELQACADVVDRERFCRWAGLPRQGFPIIFHGVMGKDEREGNSPSFFNPEEAATVTSYLKLLLAPSSKKGKARLSPRSVGVISPYRKQVEKIRYCITKLDRELRGLDDIKDLKVGSVEEFQGQERSVILISTVRSSQSFVQLDLDFNLGFLKNPKRFNVAVTRAKALLIIVGNPLLLGHDPDWKVFLEFCKENGGYTGCPFPAKLDLQQGQNLLQGLSKLSPSTSGPHSHDYLPQEREGEGGLSLQVEPEWRNEL

Biological target: T1, FLAG-UPF1 (wild-type) (human)
Test: co-IP; anti-FLAG IP of transiently transfected FLAG-UPF1 (wild-type or mutants) from HEK293T lysate; endogenous partners by western blot; in the absence or presence of RNase A (Figures 2B, S2B); cells also depleted of DHX34 by shRNA, rescued with T7-DHX34, or cotransfected with T7-DHX34

Molecule | binding
B1 | binds

Biological target: T2, FLAG-DHX34 (human)
Test: co-IP; anti-FLAG IP of transiently transfected FLAG-DHX34 from HEK293T lysate, in the absence or presence of RNase A; endogenous partners by western blot

Molecule | binding
poly (A) binding protein (PABP1) (from UniProt P11940 1-636) | no binding
SMG6 (from UniProt Q86US8 1-1419) | binds
exonuclease XRN1 (from UniProt Q8IZH2 1-1706) | binds
B2 | binds
B3 | binds
B4 | binds
